Test system: M. tuberculosis strain H37Rv

Row | SMILES | reduction of viable CFU (10× and 20× MIC, over 7 days, ~10^7 cells/ml) | bactericidal activity, time-kill outcome
1 | CCCCS(=O)(=O)Nc1ccc2cnn(C)c2c1 [DG167, N-(1-Methyl-1H-indazol-6-yl)butane-1-sulfonamide] | 2 log10 | –
2 | NNC(=O)c1ccncc1 [INH, isoniazid] | – | rapid reduction of viable CFU levels followed by rapid regrowth

Reference: publication PMC6299220 (mBio, 2018)
